Experimental findings from article PMC12136788 are described below.

Some of the results follow.

T1: UNK ZnF1-3 (human, UniProt Q9C0B0 31-174)
T1 sequence: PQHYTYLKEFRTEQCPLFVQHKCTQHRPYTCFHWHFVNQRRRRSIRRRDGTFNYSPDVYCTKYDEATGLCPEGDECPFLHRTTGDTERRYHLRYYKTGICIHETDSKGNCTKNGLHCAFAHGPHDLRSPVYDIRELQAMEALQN

B1: chr16:46990514:46990515:-_ENSG00000069345_ENST00000317089|hu_hu|motif|central (ssRNA)
RNA: GGGAGUUCUACAGUCCGACGAUCAACCCAUUGUGUGCAAAGCCCAUUUUUUUCCAUGCAUCUAAAUGAUAGAUACAGGCGGUGAAAUUCUUUAUUCUAUUUGUAGCAGCUUAUGCAGGUGCAGCCAAACACAAAGCUUCAGGACAACAGAGGAUUGAGCAUCA
B2: chr4:107252891:107252892:+_ENSG00000164022_ENST00000394701|hu_hu|FALSE|FALSE (ssRNA)
RNA: GGGAGUUCUACAGUCCGACGAUCAGGGUGUUUUCUAGCAGUUAUGAUGCAACCAAUUCGAAGAUCCAGACGGGAAACAUCUAUUGGCUUAGAGUCGGCACUUCCAGCUAUUGAUUGCUGUUUUUUCUCCUUCUUCUCUCCUUUCAACAGAGGAUUGAGCAUCA
B3: chr1:60041781:60041782:+_ENSMUSG00000041040_ENSMUST00000036540|mus_hu|mus_mus_mus_hu_False|48_48 (ssRNA)
RNA: GGGAGUUCUACAGUCCGACGAUCAAGUUUACAAUAGUAAAGUAAAUGCAGUAGUGGCAAAUUUUCUUUUAUUUUCCUUCACAAAAGAAAACCUCAGUAACCCAGUCCUAGUCUUGGACAUAGUGAAAGCUAUAAAUUCUGACUCAACAGAGGAUUGAGCAUCA
B4: 44630555_44630842_6477_CDS_ENSMUSG00000002028_ENSMUST00000002095|mouse|control|control (ssRNA)
RNA: GGGAGUUCUACAGUCCGACGAUCCGGGUCACCGACUGUGACGAUUUCGUGAGUGGUUGGGGUAGGACUUCCUGCAGAAGGCAAUGGGCGGCAGCCAGGGGACCUCUGUGUAGGCGAGUAGCUGGGUGUUCGAAUCCUAGGGACCAACAGAGGAUUGAGCAUCA
B5: chr1:39494447:39494448:+_ENSG00000168653_ENST00000372967|hu_mus|hu_hu_hu_mus_False|38_78 (ssRNA)
RNA: GGGAGUUCUACAGUCCGACGAUCGCACCGAGCGGCGUUCUUAUAGGGCUGUUCUGCACUCUGGAUUAUAAAGUGCCGGUCCAGGCUGAUGCCCAGCCUUUUCUGGAUGUCAAGGAAAGGCAUGGCUCUGCAGUGCCCUUGUCACAACAGAGGAUUGAGCAUCA
B6: chr12:16048344:16048345:+_ENSG00000023734_ENST00000419869|hu_hu|hu_hu_hu_mus_True|38_38 (ssRNA)
RNA: GGGAGUUCUACAGUCCGACGAUCAGAUCGUCCAUAAGUAAUAACCAAAAUCUCUCCUUCAGGAAUAUACUCCAUGCUGCUAACAGACAUAUUAAAAUUUAGAGAUUUCACUUCUGUCAUUGUGGCAUGAUCCCAGAGCCGAACCAACAGAGGAUUGAGCAUCA
B7: 166765582_166766801_2334_CDS_ENSMUSG00000002718_ENSMUST00000002790|mouse|control|control (ssRNA)
RNA: GGGAGUUCUACAGUCCGACGAUCGAUUAUACUGUUGAGAAGAUAGAAACCUUGGUGAUCGUUUGCCUUGGAUGCAAUCAGCUUCUGGAAGACACCCAGUAAUCCAGGAAUUUUGUCAGCUGCAGCAGUUGCUAUUGUACUUGACAACAGAGGAUUGAGCAUCA
B8: chr1:225611761:225611762:-_ENSG00000143815_ENST00000272163|hu_mus|hu_hu_hu_mus_True|28_58 (ssRNA)
RNA: GGGAGUUCUACAGUCCGACGAUCCCAGGCCAUCGGCCUCUGACCACUUCACCCUCAACAAACUUCCUACUUGGCAUUUUCUAUAAUUAGUCUGGCCGCGCUCCGGCCGGUGACACGGCCACUCCAGGACAGUCACCAGCAGCCCAACAGAGGAUUGAGCAUCA
B9: 93056736_93062024_1308_3pUTR_ENSMUSG00000020964_ENSMUST00000021347|mouse|control|control (ssRNA)
RNA: GGGAGUUCUACAGUCCGACGAUCCUUUCCCAGGAAGGCCAUAGCAUGUGAAUUGCCAGCAUUUGCUGCUAAGUUGAAGUAGUCAAACGCUCUCUGGUGAUUCUGUUCUACUCCACGCCCUCCAUGCAGAUGCAGCUGUCCCAGCAACAGAGGAUUGAGCAUCA
B10: chr11:46405157:46405158:+_ENSG00000110492_ENST00000395566|hu_hu|hu_hu_hu_mus_False|88_88 (ssRNA)
RNA: GGGAGUUCUACAGUCCGACGAUCCCCUCCCCACUUUGGGCACUUGGUGAGAGGGACAGAGGACAGGCGUGAUUGACAGAGCUGACAGGAAGACAAAAGGCACUGGUGGGUUAUAUCUUGGGCCUGUGGGAGAGGAGGGCUCCGCAACAGAGGAUUGAGCAUCA
B11: chr7:141438946:141438947:+_ENSG00000106028_ENST00000265304|hu_mus|motif|central (ssRNA)
RNA: GGGAGUUCUACAGUCCGACGAUCGACGAAAUACCUGUAACACAGGUCUUCGAAACAUGGCUUCUGUUUUUCUUACAACCGGAUCUUUAGGCUUUUCCUAAAGGAAAGAAAGAAAAGAGAAAAAUGAUAAAUCAAGAAACUACACAACAGAGGAUUGAGCAUCA
B12: chr5:4806066:4806067:-_ENSMUSG00000028926_ENSMUST00000030763|mus_hu|FALSE|FALSE (ssRNA)
RNA: GGGAGUUCUACAGUCCGACGAUCGUUUGAUAAUUGUUUUUUCAAUUCCAACCUAUUCAAAAAACAGUCAUGCUAUGUGGCUUGAAAAUGCUAAGCAGAGUCCAAUAUCCUAUAUAUAAAUGUGCAGUUAUUUCCAAGUAAAAACAACAGAGGAUUGAGCAUCA
B13: 32197834_32217671_124_5pUTR_ENSG00000165322_ENST00000344936|human|control|control (ssRNA)
RNA: GGGAGUUCUACAGUCCGACGAUCGGCUUGUUGGAUGAAUAUAGCUUAGAACAAGGAGAUCUACACCAGUAUCACAUUUAAACCGGGAGCCCGGCGGCCUCGCAGCAGGCGGCUCCCUUCUUAGUCCGCCCCGCGGCUGCGGGUCAACAGAGGAUUGAGCAUCA
B14: chr11:87793471:87793472:-_ENSMUSG00000020483_ENSMUST00000020775|mus_mus|mus_mus_mus_hu_False|1_88 (ssRNA)
RNA: GGGAGUUCUACAGUCCGACGAUCUGGACUUGAAAAUAAAAGAAUAAGCUAGAUUUCCCACCCCCCCACAUUGUCAACCCUACACGAGAGUUUUGAAGGCGACUCAUGAAAAUCAGCAGCUCAAACGGCAAUGACCACCCACCCCAACAGAGGAUUGAGCAUCA
B15: chr4:25749455:25749456:-_ENSG00000091490_ENST00000264868|hu_hu|hu_hu_hu_mus_False|48_98 (ssRNA)
RNA: GGGAGUUCUACAGUCCGACGAUCGCACUAUGACCUCCCCUAGAAAACACAGGGGGAAAAAAUGUAAACCAAUGUACAAUGUUAUCGCCCUCCCUGCGUGUGGAGUGUUUGUCUCAAGGCUCCUUCUAGCUGCUGGAUUUGGGACAACAGAGGAUUGAGCAUCA
B16: chr8:131229317:131229318:+_ENSMUSG00000025809_ENSMUST00000090006|mus_mus|FALSE|FALSE (ssRNA)
RNA: GGGAGUUCUACAGUCCGACGAUCUGGCCAAAUACAGAACAAAUCAAACUGAUCAAUCCAAUCCAGGAAACCAGUUGCAAAUUCAUCUUUUCGCAGCGUCCGCCCGACACGCGGGCGGCCCGGGCUCCGCCGCGUUCCGCCUCUCAACAGAGGAUUGAGCAUCA
B17: chr17:53623224:53623225:+_ENSMUSG00000017831_ENSMUST00000017975|perfect_dup|motif|central (ssRNA)
RNA: GGGAGUUCUACAGUCCGACGAUCGGCCCGUUGGGUCUUGUUGCUCCUCGAUUAGCCAUGUCCAAAUUUUAAAGAAGUCCCGGAUUUCAGAUUCCUAAAUGAACUUCCAGGAUGCAAGGCAUUAAUUUUGUUUUCUUUCUGGAGCAACAGAGGAUUGAGCAUCA
B18: chr2:71272186:71272187:+_ENSMUSG00000027018_ENSMUST00000028408|mus_hu|FALSE|FALSE (ssRNA)
RNA: GGGAGUUCUACAGUCCGACGAUCUUGUGCCUCUAUCGCCAUAUCUUCAUUGAAUCCUUGCAUUAAUUUUUCCCGGGAAAAACAGGGCAAAUCUUGACAAAGCUUCACAAGCACAAAGUCUCGUAAUUUCACAUAGCUUUUGGACAACAGAGGAUUGAGCAUCA
B19: 47103711_47103831_6217_CDS_ENSG00000181555_ENST00000409792|human|control|control (ssRNA)
RNA: GGGAGUUCUACAGUCCGACGAUCUCUUCGUUUCCUUUUCUCUUUAUUUUGAGUUUGCUUGUCUGGGUCUCUCUCUCUUGACCUAUUAGGAGUCUUCGGGGCAGGUGUUUGAUCUCUGAAGCCAACAGCAUCCCUUCCUCGUUCCAACAGAGGAUUGAGCAUCA
B20: chr3:71021771:71021772:-_ENSG00000114861_ENST00000475937|hu_mus|motif|central (ssRNA)
RNA: GGGAGUUCUACAGUCCGACGAUCCACUGUCCAUACUGCCCCUUUAACGUUCUCUACUCGCACAAAACACUUGUGGAGACGGAGAUUAUGACGCACUGCAUUCUUCCACGUGGCUGCAUUGCGUCGGAAGUAAGCAAACAUUCGCAACAGAGGAUUGAGCAUCA
B21: chr8:74858975:74858976:-_ENSG00000154582_ENST00000284811|hu_mus|hu_hu_hu_mus_True|8_68 (ssRNA)
RNA: GGGAGUUCUACAGUCCGACGAUCGACCUUGUAGGUAAAAUACAUGCACACUUUUGAUAGCACAUGUGAAGGUAUCUCUCUAAAAUUGACCUCGUUGGUUUCAUUCUCAGCAAACUGACCUGGACCACUCAACAUGGCCUUUAUCAACAGAGGAUUGAGCAUCA
B22: chr1:46159212:46159213:+_ENSG00000159596_ENST00000372025|hu_mus|hu_hu_hu_mus_True|8_88 (ssRNA)
RNA: GGGAGUUCUACAGUCCGACGAUCUCUGAUCCCUCCCAAGAAAGCUAGGAAACUGGCUCCAUAAGCCAUCUGAGUGAAAGCUAGGACGGGGAUAUAAGACUUUGUUAUUACCAUGAGAAGUGGGGGAGCAACGAAGGGGAUUAACAACAGAGGAUUGAGCAUCA

This assay has as its target T1, UNK ZnF1-3. The assay is described as follows: nsRBNS (natural sequence RNA bind-n-seq); RBNS binding buffer (assumed for nsRBNS): 25 mM Tris pH 7.5, 150 mM KCl, 3 mM MgCl2, 0.01% Triton X-100, 500 ug/ml BSA, 20 U/ml SUPERase-In, 4 C; UNK is unkempt and MSI1 is Musashi-1; names of the RNAs are library labels; protein concentration not given here; high values mean tight binding.
The molecule B1 gave a binding signal of 1.28 enrichment R.

On to B2, for which the binding signal was determined as 0.59 enrichment R.

The molecule B3 registered a binding signal of 0.78 enrichment R.

For B4, the binding signal came out at 1.52 enrichment R.

Take B5: the binding signal was 0.736 enrichment R.

Take B6: the binding signal stood at 1.4 enrichment R.

Consider B7, for which the binding signal is 0.887 enrichment R.

For B8, the binding signal is 0.968 enrichment R.

In turn, B9 came in with a binding signal of 0.849 enrichment R.

In turn, B10 showed a binding signal of 2.71 enrichment R.

For the molecule B11, the binding signal was found to be 0.726 enrichment R.

For B12, the binding signal was determined as 0.814 enrichment R.

In turn, B13 had a binding signal of 0.663 enrichment R.

For B14, the binding signal was determined as 2.07 enrichment R.

The molecule B15 registered a binding signal of 1.08 enrichment R.

B16 gave a binding signal of 0.841 enrichment R.

Take B17: the binding signal is 0.858 enrichment R.

Turning to B18, the binding signal stood at 1.04 enrichment R.

Molecule B19 gave a binding signal of 0.363 enrichment R.

B20 registered a binding signal of 0.757 enrichment R.

In turn, B21 had a binding signal of 0.578 enrichment R.

On to B22, for which the binding signal came out at 1.45 enrichment R.
